# Some of the results follow.
# Assays:
# Assay in all cases: glycan array binding signal (z-score within array); higher = stronger binding
# Conditions in all cases: glycan notation: IUPAC condensed, linker removed; mutation: W10H
# [1] = molecular target: GlcNAc(b1-4)GlcNAc(b1-4)GlcNAc(b1-4)GlcNAc(b1-4)GlcNAc
# How it was run: (§1)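 The binding signal is a Z-score computed within each array and averaged over linkers. Arrays of the same protein sequence at different concentrations or buffers were also averaged together. Data originate from 3228 arrays in the Consortium for Functional Glycomics database, kept only where the protein sequence was available.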
# [2] = molecular target: GlcNAc(b1-4)GlcNAc(b1-4)GlcNAc(b1-4)GlcNAc(b1-4)GlcNAc(b1-4)GlcNAc
# How it was run: as §1
# [3] = molecular target: GlcNAc(b1-4)[GlcNAc(b1-6)]GalNAc
# How it was run: as §1
# [4] = molecular target: GlcNAc(b1-6)Gal(b1-4)GlcNAc
# How it was run: as §1
# [5] = molecular target: GlcNAc(b1-6)GalNAc
# How it was run: as §1
# [6] = molecular target: GlcNAc6S(b1-3)Gal(b1-4)GlcNAc
# How it was run: as §1
# [7] = molecular target: Kdn(a2-3)Gal(b1-3)GalNAc
# How it was run: as §1
# [8] = molecular target: Kdn(a2-3)Gal(b1-3)GlcNAc
# How it was run: as §1
# [9] = molecular target: Kdn(a2-3)Gal(b1-4)Glc
# How it was run: as §1
# [10] = molecular target: Kdn(a2-3)Gal(b1-4)GlcNAc
# How it was run: as §1
# [11] = molecular target: Kdn(a2-3)Gal(b1-4)[Fuc(a1-3)]GlcNAc
# How it was run: as §1
# [12] = molecular target: Kdn(a2-6)Gal(b1-4)GlcNAc
# How it was run: as §1
# [13] = molecular target: Man(a1-2)Man(a1-2)Man(a1-3)Man
# How it was run: as §1
# [14] = molecular target: Man(a1-2)Man(a1-2)Man(a1-6)[Man(a1-3)]Man
# How it was run: as §1
# [15] = molecular target: Man(a1-2)Man(a1-3)Man
# How it was run: as §1
# [16] = molecular target: Man(a1-2)Man(a1-3)[Man(a1-2)Man(a1-6)]Man
# How it was run: as §1
# [17] = molecular target: Man(a1-2)Man(a1-3)[Man(a1-2)Man(a1-6)]Man(a1-6)[Man(a1-2)Man(a1-2)Man(a1-3)]Man
# How it was run: as §1
# [18] = molecular target: Man(a1-2)Man(a1-3)[Man(a1-2)Man(a1-6)]Man(a1-6)[Man(a1-2)Man(a1-2)Man(a1-3)]Man(b1-4)GlcNAc(b1-4)GlcNAc
# How it was run: as §1
# [19] = molecular target: Man(a1-2)Man(a1-3)[Man(a1-6)]Man(a1-6)[Man(a1-2)Man(a1-3)]Man(b1-4)GlcNAc(b1-4)GlcNAc
# How it was run: as §1
# [20] = molecular target: Man(a1-2)Man(a1-6)[Man(a1-3)]Man(a1-6)[Man(a1-2)Man(a1-2)Man(a1-3)]Man
# How it was run: as §1
# [21] = molecular target: Man(a1-2)Man(a1-6)[Man(a1-3)]Man(a1-6)[Man(a1-2)Man(a1-2)Man(a1-3)]Man(b1-4)GlcNAc(b1-4)GlcNAc
# How it was run: as §1
# [22] = molecular target: Man(a1-3)[Man(a1-6)]Man
# How it was run: as §1
# [23] = molecular target: Man(a1-3)[Man(a1-6)]Man(a1-6)[Man(a1-2)Man(a1-3)]Man(b1-4)GlcNAc(b1-4)GlcNAc
# How it was run: as §1
# [24] = molecular target: Man(a1-3)[Man(a1-6)]Man(a1-6)[Man(a1-3)]Man
# How it was run: as §1
# [25] = molecular target: Man(a1-3)[Man(a1-6)]Man(a1-6)[Man(a1-3)]Man(b1-4)GlcNAc(b1-4)GlcNAc
# How it was run: as §1
# [26] = molecular target: Man(a1-3)[Man(a1-6)]Man(b1-4)GlcNAc(b1-4)GlcNAc
# How it was run: as §1
# [27] = molecular target: Man(a1-3)[Man(a1-6)]Man(b1-4)GlcNAc(b1-4)[Fuc(a1-6)]GlcNAc
# How it was run: as §1
# [28] = molecular target: Man(a1-6)Man
# How it was run: as §1
# [29] = molecular target: Man(b1-4)GlcNAc
# How it was run: as §1
# [30] = molecular target: MurNAc(b1-4)GlcNAc
# How it was run: as §1
# [31] = molecular target: Neu5Ac(a2-3)Gal
# How it was run: as §1
# [32] = molecular target: Neu5Ac(a2-3)Gal(b1-3)GalNAc
# How it was run: as §1
# [33] = molecular target: Neu5Ac(a2-3)Gal(b1-3)GalNAc(b1-3)Gal(a1-4)Gal(b1-4)Glc
# How it was run: as §1
# [34] = molecular target: Neu5Ac(a2-3)Gal(b1-3)GalNAc(b1-4)Gal(b1-4)Glc
# How it was run: as §1
# [35] = molecular target: Neu5Ac(a2-3)Gal(b1-3)GalNAc(b1-4)[Neu5Ac(a2-3)]Gal(b1-4)Glc
# How it was run: as §1
# [36] = molecular target: Neu5Ac(a2-3)Gal(b1-3)GalNAc(b1-4)[Neu5Ac(a2-8)Neu5Ac(a2-3)]Gal(b1-4)Glc
# How it was run: as §1
# [37] = molecular target: Neu5Ac(a2-3)Gal(b1-3)GalNAc6S
# How it was run: as §1
# [38] = molecular target: Neu5Ac(a2-3)Gal(b1-3)GlcNAc
# How it was run: as §1
# [39] = molecular target: Neu5Ac(a2-3)Gal(b1-3)GlcNAc(b1-2)Man
# How it was run: as §1
# [40] = molecular target: Neu5Ac(a2-3)Gal(b1-3)GlcNAc(b1-2)Man(a1-3)[GlcNAc(b1-4)][Neu5Ac(a2-3)Gal(b1-3)GlcNAc(b1-2)Man(a1-6)]Man(b1-4)GlcNAc(b1-4)GlcNAc
# How it was run: as §1
# [41] = molecular target: Neu5Ac(a2-3)Gal(b1-3)GlcNAc(b1-2)Man(a1-3)[Neu5Ac(a2-3)Gal(b1-3)GlcNAc(b1-2)Man(a1-6)]Man(b1-4)GlcNAc(b1-4)GlcNAc
# How it was run: as §1
# [42] = molecular target: Neu5Ac(a2-3)Gal(b1-3)GlcNAc(b1-2)[Neu5Ac(a2-3)Gal(b1-3)GlcNAc(b1-4)]Man(a1-6)[Neu5Ac(a2-3)Gal(b1-3)GlcNAc(b1-2)Man(a1-3)]Man(b1-4)GlcNAc(b1-4)GlcNAc
# How it was run: as §1
# [43] = molecular target: Neu5Ac(a2-3)Gal(b1-3)GlcNAc(b1-3)Gal(b1-3)GlcNAc
# How it was run: as §1
# [44] = molecular target: Neu5Ac(a2-3)Gal(b1-3)GlcNAc(b1-3)Gal(b1-4)GlcNAc
# How it was run: as §1
# [45] = molecular target: Neu5Ac(a2-3)Gal(b1-3)GlcNAc(b1-3)GalNAc
# How it was run: as §1
binder,measurement,setting,value
Banana lectin (Musa acuminata) (protein) MNGAIKVGAHGGNGGSAFDMGPAYRIISVKIFSGDVVDGVDVTFTYYGKTETRHYGGSGGTPHEIVLQEGEYLVGMAGEVANYHGAVVLGKLGFSTNKKAYGPFGNTGGTPFSLPIAAGKISGFFGRGGKFLDAIGVYLEPLEHHHHHH,glycan array binding signal (z-score),[1],-0.18
same,glycan array binding signal (z-score),[2],-0.151
same,glycan array binding signal (z-score),[3],-0.165
same,glycan array binding signal (z-score),[4],-0.138
same,glycan array binding signal (z-score),[5],-0.179
same,glycan array binding signal (z-score),[6],-0.152
same,glycan array binding signal (z-score),[7],-0.164
same,glycan array binding signal (z-score),[8],-0.109
same,glycan array binding signal (z-score),[9],-0.192
same,glycan array binding signal (z-score),[10],-0.175
same,glycan array binding signal (z-score),[11],-0.166
same,glycan array binding signal (z-score),[12],-0.142
same,glycan array binding signal (z-score),[13],0.986
same,glycan array binding signal (z-score),[14],7.33
same,glycan array binding signal (z-score),[15],1.78
same,glycan array binding signal (z-score),[16],2.86
same,glycan array binding signal (z-score),[17],6.5
same,glycan array binding signal (z-score),[18],2.96
same,glycan array binding signal (z-score),[19],9.34
same,glycan array binding signal (z-score),[20],5.18
same,glycan array binding signal (z-score),[21],6.56
same,glycan array binding signal (z-score),[22],2.82
same,glycan array binding signal (z-score),[23],13.5
same,glycan array binding signal (z-score),[24],-0.126
same,glycan array binding signal (z-score),[25],3.07
same,glycan array binding signal (z-score),[26],6.6
same,glycan array binding signal (z-score),[27],2.33
same,glycan array binding signal (z-score),[28],-0.124
same,glycan array binding signal (z-score),[29],-0.183
same,glycan array binding signal (z-score),[30],-0.177
same,glycan array binding signal (z-score),[31],-0.197
same,glycan array binding signal (z-score),[32],-0.138
same,glycan array binding signal (z-score),[33],-0.167
same,glycan array binding signal (z-score),[34],-0.186
same,glycan array binding signal (z-score),[35],-0.187
same,glycan array binding signal (z-score),[36],-0.172
same,glycan array binding signal (z-score),[37],-0.191
same,glycan array binding signal (z-score),[38],-0.166
same,glycan array binding signal (z-score),[39],-0.227
same,glycan array binding signal (z-score),[40],-0.163
same,glycan array binding signal (z-score),[41],-0.192
same,glycan array binding signal (z-score),[42],0.013
same,glycan array binding signal (z-score),[43],-0.174
same,glycan array binding signal (z-score),[44],-0.201
same,glycan array binding signal (z-score),[45],-0.169

# Reference: the supplement of paper PMC8728848
